The text below walks through data of article PMC7383879, “HSI2/VAL1 and HSL1/VAL2 function redundantly to repress DOG1 expression in Arabidopsis seeds and seedlings”.

No constants are given. Whether binding was seen depends on the method and setting. In cells and extracts the contact can be indirect. Some binding calls cover weakened binding; strength is not graded here. Tags and fused reporters may be left off the sequences shown.

The target of assay [1] is T1, HIGH‐LEVEL EXPRESSION OF SUGAR INDUCIBLE2 (HSI2), BiFC fusion (Arabidopsis thaliana) (UniProt Q8W4L5).
T1 sequence: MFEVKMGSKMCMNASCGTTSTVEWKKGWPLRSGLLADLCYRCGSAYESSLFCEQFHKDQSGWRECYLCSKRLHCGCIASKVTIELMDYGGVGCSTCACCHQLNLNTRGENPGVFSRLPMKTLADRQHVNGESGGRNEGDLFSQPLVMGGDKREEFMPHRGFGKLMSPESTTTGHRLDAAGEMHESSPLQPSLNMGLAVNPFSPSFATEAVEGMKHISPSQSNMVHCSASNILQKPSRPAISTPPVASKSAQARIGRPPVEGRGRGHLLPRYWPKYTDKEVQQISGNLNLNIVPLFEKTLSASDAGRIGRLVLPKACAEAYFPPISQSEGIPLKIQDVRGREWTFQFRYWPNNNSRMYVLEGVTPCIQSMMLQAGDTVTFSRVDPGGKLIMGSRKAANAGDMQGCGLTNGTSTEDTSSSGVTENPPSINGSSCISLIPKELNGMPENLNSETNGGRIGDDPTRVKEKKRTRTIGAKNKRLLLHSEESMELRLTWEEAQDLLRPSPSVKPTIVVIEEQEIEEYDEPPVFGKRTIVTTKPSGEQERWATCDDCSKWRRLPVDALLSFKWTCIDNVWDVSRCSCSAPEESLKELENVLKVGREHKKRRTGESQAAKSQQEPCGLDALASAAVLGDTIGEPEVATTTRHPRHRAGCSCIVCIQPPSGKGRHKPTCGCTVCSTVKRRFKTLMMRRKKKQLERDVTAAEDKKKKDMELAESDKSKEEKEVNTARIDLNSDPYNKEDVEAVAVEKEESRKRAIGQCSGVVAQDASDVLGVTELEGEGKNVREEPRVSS
Kind of assay: split reporter; BiFC: nEYFP and cEYFP fusions, Agrobacterium GV2260 co-infiltrated into tobacco (N. benthamiana) leaves; YFP fluorescence by confocal microscopy after 2 d.

The target of assay [2] is T2, HSI2‐LIKE1 (HSL1), BiFC fusion (Arabidopsis thaliana) (UniProt Q5CCK4).
T2 sequence: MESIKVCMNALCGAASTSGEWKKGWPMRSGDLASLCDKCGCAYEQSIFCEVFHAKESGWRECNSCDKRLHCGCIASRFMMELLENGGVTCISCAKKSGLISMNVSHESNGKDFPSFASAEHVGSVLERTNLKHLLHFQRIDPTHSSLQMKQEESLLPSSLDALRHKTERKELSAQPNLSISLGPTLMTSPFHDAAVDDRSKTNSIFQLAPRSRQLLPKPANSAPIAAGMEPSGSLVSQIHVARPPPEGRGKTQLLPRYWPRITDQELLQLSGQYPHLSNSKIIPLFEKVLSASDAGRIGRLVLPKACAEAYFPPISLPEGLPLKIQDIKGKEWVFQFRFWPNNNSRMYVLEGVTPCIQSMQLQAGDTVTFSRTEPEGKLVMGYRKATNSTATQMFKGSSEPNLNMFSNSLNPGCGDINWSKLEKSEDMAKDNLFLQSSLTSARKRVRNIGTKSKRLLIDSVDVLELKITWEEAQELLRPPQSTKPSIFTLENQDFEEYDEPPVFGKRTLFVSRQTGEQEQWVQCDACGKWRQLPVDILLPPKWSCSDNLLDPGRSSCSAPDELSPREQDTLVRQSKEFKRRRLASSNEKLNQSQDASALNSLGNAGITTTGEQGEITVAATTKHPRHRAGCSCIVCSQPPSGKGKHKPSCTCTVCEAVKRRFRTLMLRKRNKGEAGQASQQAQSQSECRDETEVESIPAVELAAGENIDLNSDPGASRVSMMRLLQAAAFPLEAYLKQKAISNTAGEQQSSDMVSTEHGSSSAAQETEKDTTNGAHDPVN
The assay is described as above.

B1: CURLY LEAF (CLF), BiFC fusion (protein, UniProt P93831 1-902)
chain: MASEASPSSSATRSEPPKDSPAEERGPASKEVSEVIESLKKKLAADRCISIKKRIDENKKNLFAITQSFMRSSMERGGSCKDGSDLLVKRQRDSPGMKSGIDESNNNRYVEDGPASSGMVQGSSVPVKISLRPIKMPDIKRLSPYTTWVFLDRNQRMTEDQSVVGRRRIYYDQTGGEALICSDSEEEAIDDEEEKRDFLEPEDYIIRMTLEQLGLSDSVLAELASFLSRSTSEIKARHGVLMKEKEVSESGDNQAESSLLNKDMEGALDSFDNLFCRRCLVFDCRLHGCSQDLIFPAEKPAPWCPPVDENLTCGANCYKTLLKSGRFPGYGTIEGKTGTSSDGAGTKTTPTKFSSKLNGRKPKTFPSESASSNEKCALETSDSENGLQQDTNSDKVSSSPKVKGSGRRVGRKRNKNRVAERVPRKTQKRQKKTEASDSDSIASGSCSPSDAKHKDNEDATSSSQKHVKSGNSGKSRKNGTPAEVSNNSVKDDVPVCQSNEVASELDAPGSDESLRKEEFMGETVSRGRLATNKLWRPLEKSLFDKGVEIFGMNSCLIARNLLSGFKSCWEVFQYMTCSENKASFFGGDGLNPDGSSKFDINGNMVNNQVRRRSRFLRRRGKVRRLKYTWKSAAYHSIRKRITEKKDQPCRQFNPCNCKIACGKECPCLLNGTCCEKYCGCPKSCKNRFRGCHCAKSQCRSRQCPCFAADRECDPDVCRNCWVIGGDGSLGVPSQRGDNYECRNMKLLLKQQQRVLLGISDVSGWGAFLKNSVSKHEYLGEYTGELISHKEADKRGKIYDRENCSFLFNLNDQFVLDAYRKGDKLKFANHSPEPNCYAKVIMVAGDHRVGIFAKERILAGEELFYDYRYEPDRAPAWAKKPEAPGSKKDENVTPSVGRPKKLA
As to B1, the binding result in assay [1] and in assay [2] was “binds” each time.

B2: HIGH‐LEVEL EXPRESSION OF SUGAR INDUCIBLE2 (HSI2), BiFC fusion (protein, UniProt Q8W4L5 1-790)
chain: MFEVKMGSKMCMNASCGTTSTVEWKKGWPLRSGLLADLCYRCGSAYESSLFCEQFHKDQSGWRECYLCSKRLHCGCIASKVTIELMDYGGVGCSTCACCHQLNLNTRGENPGVFSRLPMKTLADRQHVNGESGGRNEGDLFSQPLVMGGDKREEFMPHRGFGKLMSPESTTTGHRLDAAGEMHESSPLQPSLNMGLAVNPFSPSFATEAVEGMKHISPSQSNMVHCSASNILQKPSRPAISTPPVASKSAQARIGRPPVEGRGRGHLLPRYWPKYTDKEVQQISGNLNLNIVPLFEKTLSASDAGRIGRLVLPKACAEAYFPPISQSEGIPLKIQDVRGREWTFQFRYWPNNNSRMYVLEGVTPCIQSMMLQAGDTVTFSRVDPGGKLIMGSRKAANAGDMQGCGLTNGTSTEDTSSSGVTENPPSINGSSCISLIPKELNGMPENLNSETNGGRIGDDPTRVKEKKRTRTIGAKNKRLLLHSEESMELRLTWEEAQDLLRPSPSVKPTIVVIEEQEIEEYDEPPVFGKRTIVTTKPSGEQERWATCDDCSKWRRLPVDALLSFKWTCIDNVWDVSRCSCSAPEESLKELENVLKVGREHKKRRTGESQAAKSQQEPCGLDALASAAVLGDTIGEPEVATTTRHPRHRAGCSCIVCIQPPSGKGRHKPTCGCTVCSTVKRRFKTLMMRRKKKQLERDVTAAEDKKKKDMELAESDKSKEEKEVNTARIDLNSDPYNKEDVEAVAVEKEESRKRAIGQCSGVVAQDASDVLGVTELEGEGKNVREEPRVSS
With B2, the binding entry in assay [1] and in assay [2] was “binds” in each case.
